# Results from the supplement of paper PMC10126150.
# Sequences with one replicate were seen in a single cluster, so their values are uncertain.
# System: ATP
# Assay: switch fluorescence ratio, 500 uM ATP over buffer (Cy3 cluster intensity, sum of 5 cycles each) (fold (ratio)); higher = stronger signal-on switching upon ATP binding; sequences stand for … in TCGTCGGCAGCGTCAGATGTGTATAAGAGACAGTTTTTTTTTTTTTTTTTTTTTTTTT…TC
# Conditions: aptamer strand: ATP DNA aptamer (quencher-CACCTGGGGGAGTATTGCGGAGGAAGG + anchor), 100 nM annealed; ATP concentration: 500 uM; one replicate
# In short: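 For every switch-domain sequence, the fluorescence ratio is the mean of per-cluster values, each being summed target-cycle Cy3 intensity over summed buffer-cycle Cy3 intensity. Clusters outside 100-1000 RFU were excluded. On a modified Illumina MiSeq flow-cell, the Cy3-labelled switching-strand clusters were annealed to 100 nM quencher-labelled ATP aptamer, imaged in selection buffer and then after 15 min with 500 uM ATP at 22 °C. Five such cycles were run, with NaOH stripping and re-annealing between them.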
# 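Also: ATP exposure 15 min at 22 °C before imaging.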
row,Sequence,switch fluorescence ratio
1,CAGAGTTCGC,1.01
2,ATACGGACAA,1.34
3,TGTGGGTCG,0.932
4,TGCGGCATCA,1.03
5,CTTTTCAAGA,1.04
6,TTTCATGCGC,1.14
7,TCCTCACACG,1.34
8,CAAGGCTTGG,0.983
9,TCCTAGGTAG,1.09
10,TTCTGAGGAG,0.989
11,GTCCATTTGT,1
12,GGTAAACCAT,1.02
13,CGCCGGGTCT,1.09
14,TCATTTGGCC,0.946
15,TCTTGAACTA,0.971
16,GAGTGTTAC,1.03
17,ACTACCCTC,1.2
18,GTGTCGGTAT,1.03
19,AATTTGTCGG,1.07
20,TATATACTTA,1.04
21,ACTGATAACA,1
22,CGAAATTGAG,1.09
23,ATTTATACT,0.976
24,TTTGGCGGC,1.01
25,CGCTGGCCC,1.03

row,Sequence,switch fluorescence ratio
1,CTTTTCGCCT,0.998
2,AGAGGGG,0.977
3,GTAAATCCTA,1.03
4,AAATGAAAAT,1.01
5,CTGGGCAATC,1.5
6,GTCAAAGTAA,1.03
7,AAGTAAGATA,0.998
8,CGGGAATGTA,1.01
9,CCGTTGCAG,1.18
10,TATTAGGCCC,0.994
11,TTGCAAGTCG,1.17
12,ACTCCTTGGC,1.16
13,TGGATCCGTT,0.974
14,ATTTTTCAT,0.976
15,GGCCAGGCAG,1.06
16,TGCCTTTTGT,0.985
17,AAATTTACGA,1.09
18,GCTGTGATAC,5.3
19,AATATCTTTT,1.02
20,TTAGAACCTT,1.68
21,TTACTCTGCT,1.28
22,AGTACCTAGA,0.995
23,ATACGCAGTT,0.993
24,GCAAGTCCAT,1
25,TTTATTAAGA,0.997

row,Sequence,switch fluorescence ratio
1,CCAGGTGAAG,2.51
2,AAGGGCATTC,0.971
3,ATCTCTATAG,1.01
4,TGAGGCTCT,1.02
5,TTGCTTGTAG,0.965
6,GGAACTAAG,1.01
7,CACTGTTTTT,1.01
8,TGGCGGACGC,0.979
9,ATGGTTGAAG,0.97
10,ATAACCGAGA,1.07
11,TCACTATTGG,1.03
12,CTAGTGGGGG,0.984
13,GAGACAAGTG,0.991
14,TTTCTGATTG,1.04
15,ATACGGTTAT,1.03
16,TAGTTCCGTG,1.06
17,ACCATTGCTT,1.03
18,AGTGTAGC,1
19,GGTGCCATCC,2.05
20,CTCCCCCTTG,4.79
21,TTTCCAATTG,1.02
22,GGGGCGCCGT,1.08
23,TAAGGGGAT,0.984
24,AGTATCAATT,0.983
25,GGCGTTGAGG,1.01

row,Sequence,switch fluorescence ratio
1,GAGAGGAAGA,1.03
2,TATGGGTTAG,0.98
3,TCTTTGAACT,0.985
4,TTATACAAAA,1.02
5,TTTCCCTTCA,1.27
6,GGTAGCTACG,0.971
7,CTAAAATGAT,1.01
8,ATTAAAGGC,1.08
9,CGCTAATCGG,1.09
10,CTCCAAGAT,3.62
11,TTACGATTGC,1.96
12,GCCGTATGTG,1.03
13,ACGCGAACGA,1.07
14,TGCAGGTAAA,1.07
15,CGCTGCGGGT,1.03
16,GGATAGCTAC,1.18
17,CATGTGATGA,1.02
18,AATGCCACTG,1.1
19,ATTGGTTCAA,1.04
20,TACGACCTC,1.21
21,GGTGAAGCGG,0.993
22,GGGATCACCG,0.988
23,CAGGCATGTG,1.03
24,GGTATCATGA,0.962
25,TACTAAAAGT,1.15
